Out of some 350,000 compounds screened, about 9,900 (2.8%) were called active. Inconclusive means that the source gave no clear call. Such entries were picked first, then a sample of the others. Calls come from the whole dose curve; as a rule, active = well fitted activation curve with a large enough effect; inconclusive = small, poorly fitted or top-dose-only effect; inactive = no such curve, though single readings can be large or run the other way. Potencies of inconclusive entries are left out as doubtful fits.
assay: A quantitative high throughput screen for small molecules that induce DNA re-replication in MCF 10a normal breast cells.; note: nearly all actives have a fitted effect of over 50% in size; for activity, positive = re-replication: % of control where 0% means no effect; conditions: MCF 10A DNA re-replication, Hoechst nuclear intensity, 48 h; activity, positive = re-replication: at 46.1 µM (top of the series)
Potency is the fitted concentration of half-maximal effect; tags give direction and shape of the fitted curve.

Structure (SMILES)	Potency	activity, positive = re-replication
C=CCSc1nc2sc(C)c(C)c2c(=O)n1CC=C	inconclusive [activator, single point]	–
O=C(O)C1C2C=CC(C2)C1C(=O)OCC1CCCO1 (centres undefined)	inconclusive [activator, partial curve, poor fit]	–
COCCCNC(=O)c1c(N)n(/N=C/c2cccs2)c2nc3ccccc3nc12	inconclusive [activator, full curve, poor fit]	–
COC(=O)c1ccc(/C=C2\SC(=S)N(CCCC(=O)NCCCN3CCOCC3)C2=O)cc1	inconclusive [activator, single point]	–
CN(CC(=O)Nc1ccc(Cl)c(C(F)(F)F)c1)C(=O)c1cc(-c2ccncc2)nc2ccccc12	inconclusive [activator, single point]	–
Cc1ccc(NC(=O)/C(C#N)=C/c2ccsc2)c(C)c1	inconclusive [activator, single point]	–
c1ccc(-c2oc3ncnc(NCCCN4CCOCC4)c3c2-c2ccccc2)cc1	inconclusive [activator, partial curve, poor fit]	–
Cc1sc(NC(=O)C2C3CCC(O3)C2C(=O)O)nc1-c1ccc(CC(C)C)cc1 (centres undefined)	inconclusive [activator, single point]	–
COc1ccc(C(=O)NC(CCSC)C(=O)NC2CC2)cc1 (centres undefined)	–	inactive: -3.19%
COc1ccc(C(=O)Oc2cccc(Nc3ncnc4ccccc34)c2)cc1OC	inconclusive [activator, single point]	–
CN(C)/C=N/c1c(C#N)cnn1-c1ncnc2sc(-c3ccccc3)cc12	inconclusive [activator, single point]	–
O=C(Nc1ccc(OC(F)(F)F)cc1)c1ccc2c(c1)no[n+]2[O-]	inconclusive [activator, single point]	–
CCCCCC1CC(=O)NC1(C(=O)OCC)C(=O)OCC (centres undefined)	–	inactive: -0.992%
COc1cc(-c2nc(-c3ccccc3)c(-c3cccs3)[nH]2)cc(OC)c1OC	inconclusive [activator, full curve, poor fit]	–
Cc1ccc(S(=O)(=O)N2CCCCC2)cc1NC(=O)CCCOc1ccccc1	inconclusive [activator, single point]	–
CC(C)Cc1nc2sc3c(=O)[nH]cnc3c2c2c1CCC2	–	inactive: 6.14%
Cc1cc(C)nc(NC(=O)c2ccc(Br)cc2)n1	–	inactive: 0.341%
CCn1c(SCC(=O)N/N=C/C=C/c2ccco2)nc2ccccc21	active: 20.6 µM	–
O=C(N/N=C/c1c(O)n(-c2ccccc2Cl)c(=O)c2ccccc12)C1COc2ccccc2O1 (centres undefined)	active: 20.6 µM	–

From PubChem BioAssay AID624296 (National Center for Advancing Translational Sciences (NCATS), 2012)
